Test results: the BET-seq Pho4 binding data (Le et al. 2018)
The list shows a part of the results. Values were computed here from the reads of four pooled replicates and scatter widely.

Each sequence was assayed against T1, Pho4 (S. cerevisiae) (UniProt P07270) (assay: relative binding free energy (BET-seq); higher = weaker binding). Conditions: reference: library average.
T1 sequence: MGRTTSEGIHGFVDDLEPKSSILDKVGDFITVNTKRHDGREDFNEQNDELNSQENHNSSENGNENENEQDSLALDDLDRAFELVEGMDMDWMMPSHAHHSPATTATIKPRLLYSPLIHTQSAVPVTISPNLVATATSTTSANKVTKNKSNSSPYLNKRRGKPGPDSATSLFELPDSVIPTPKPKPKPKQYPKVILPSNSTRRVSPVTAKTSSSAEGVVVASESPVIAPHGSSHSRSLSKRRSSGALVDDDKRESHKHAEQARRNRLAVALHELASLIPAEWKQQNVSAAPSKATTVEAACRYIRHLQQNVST
For CATATCACGTGTAAGG, the “relative binding free energy” value was 0.3 kcal/mol. TTCGTCACGTGTCATG was tested, and the “relative binding free energy” value was 0.16 kcal/mol. For GTAGGCACGTGCGTTT, the “relative binding free energy” value was -0.08 kcal/mol. For GTTTACACGTGGTCTG, the “relative binding free energy” value was 0 kcal/mol. For TGAAGCACGTGCTTGT, the “relative binding free energy” value was -0.05 kcal/mol. For GCGGACACGTGGGGCG, the “relative binding free energy” value was 0.02 kcal/mol. In the case of GATGGCACGTGTTGCT, the “relative binding free energy” value is reported as -0.01 kcal/mol. With TTTAGCACGTGAAATT the “relative binding free energy” value was 0.2 kcal/mol. GGGTCCACGTGGTTTT was tested, and the “relative binding free energy” value was 0.14 kcal/mol. With GGGGTCACGTGTGGTT the “relative binding free energy” value was 0.24 kcal/mol. For TTCAGCACGTGGGTTT, the “relative binding free energy” value was -0.16 kcal/mol. With AAAGTCACGTGGCGGA the “relative binding free energy” value was 0.08 kcal/mol. For GAGATCACGTGCAGGT, the “relative binding free energy” value was 0.31 kcal/mol. With TGTGGCACGTGTGCAG the “relative binding free energy” value was -0.11 kcal/mol. GGGCCCACGTGGGGGA was tested, and the “relative binding free energy” value was -0.22 kcal/mol. In the case of GTGGGCACGTGGCATG, the “relative binding free energy” value is reported as -0.2 kcal/mol. In the case of TACTACACGTGGTTGT, the “relative binding free energy” value is reported as 0.05 kcal/mol. With TTTGACACGTGCAATT the “relative binding free energy” value was 0.21 kcal/mol. For GGGAGCACGTGTAATT, the “relative binding free energy” value was 0.09 kcal/mol. In the case of AGTAACACGTGGGAGG, the “relative binding free energy” value is reported as -0.14 kcal/mol. In the case of TGAGCCACGTGTTGTA, the “relative binding free energy” value is reported as -0.08 kcal/mol. CTAGGCACGTGTTCGG was tested, and the “relative binding free energy” value was -0.13 kcal/mol. For GATCTCACGTGTTGTA, the “relative binding free energy” value was 0.24 kcal/mol. AATATCACGTGGGTTG was tested, and the “relative binding free energy” value was 0 kcal/mol. With TAGTGCACGTGGTTGC the “relative binding free energy” value was 0 kcal/mol. With TGAATCACGTGTGCGT the “relative binding free energy” value was 0.11 kcal/mol. GTATTCACGTGGGGGG was tested, and the “relative binding free energy” value was 0.13 kcal/mol. With GGAGTCACGTGACAGG the “relative binding free energy” value was 0.15 kcal/mol. For AGCTTCACGTGTCGGA, the “relative binding free energy” value was 0.37 kcal/mol. In the case of GTGCTCACGTGGGATT, the “relative binding free energy” value is reported as 0.13 kcal/mol. In the case of TAGTTCACGTGTATTG, the “relative binding free energy” value is reported as 0.22 kcal/mol. GGGGGCACGTGAGGGG was tested, and the “relative binding free energy” value was 0.16 kcal/mol. In the case of AATATCACGTGGCTGT, the “relative binding free energy” value is reported as -0.01 kcal/mol. With AATTACACGTGTGAGT the “relative binding free energy” value was 0.17 kcal/mol. With GTAAGCACGTGGTGGC the “relative binding free energy” value was -0.09 kcal/mol. GGCGTCACGTGTGAGG was tested, and the “relative binding free energy” value was 0.16 kcal/mol. With ATGTACACGTGTTAAA the “relative binding free energy” value was 0.13 kcal/mol. With GTATGCACGTGGGTGA the “relative binding free energy” value was -0.1 kcal/mol. With GTCGTCACGTGAGTGC the “relative binding free energy” value was 0.29 kcal/mol. For TGGGGCACGTGGGTAA, the “relative binding free energy” value was -0.13 kcal/mol. For GTCTGCACGTGGTTTA, the “relative binding free energy” value was -0.01 kcal/mol. In the case of GGAACCACGTGGGTTT, the “relative binding free energy” value is reported as -0.01 kcal/mol. In the case of TAGGTCACGTGTGAGC, the “relative binding free energy” value is reported as 0.23 kcal/mol. In the case of GGGGTCACGTGCCACG, the “relative binding free energy” value is reported as 0.15 kcal/mol. For ATGGACACGTGTCTGT, the “relative binding free energy” value was 0.01 kcal/mol. With GCTCACACGTGTGGGG the “relative binding free energy” value was 0.17 kcal/mol. For TGGGACACGTGAGTGT, the “relative binding free energy” value was 0.19 kcal/mol. GGTAGCACGTGCTTGG was tested, and the “relative binding free energy” value was -0.02 kcal/mol. GAGGTCACGTGTAGGG was tested, and the “relative binding free energy” value was 0.08 kcal/mol. For TAGCTCACGTGGTGCG, the “relative binding free energy” value was 0.13 kcal/mol. TCGGACACGTGGAGTG was tested, and the “relative binding free energy” value was 0 kcal/mol. With AATGGCACGTGCTGAA the “relative binding free energy” value was 0.06 kcal/mol. In the case of TTGGCCACGTGATCGT, the “relative binding free energy” value is reported as 0.08 kcal/mol. With TAGATCACGTGGGCTG the “relative binding free energy” value was -0.05 kcal/mol. AGGGTCACGTGTGTGT was tested, and the “relative binding free energy” value was 0.13 kcal/mol. With GCGGGCACGTGTGTCG the “relative binding free energy” value was -0.02 kcal/mol. In the case of TGTGGCACGTGGGTTG, the “relative binding free energy” value is reported as -0.13 kcal/mol. For ATGTGCACGTGATGTC, the “relative binding free energy” value was 0.1 kcal/mol. For TTTTCCACGTGGTTCG, the “relative binding free energy” value was 0.08 kcal/mol. For ATGTTCACGTGAACTG, the “relative binding free energy” value was 0.42 kcal/mol. For GCGGTCACGTGGAAGG, the “relative binding free energy” value was 0.32 kcal/mol. TTATGCACGTGGGCGC was tested, and the “relative binding free energy” value was -0.01 kcal/mol. With GTGTACACGTGGCATG the “relative binding free energy” value was -0.05 kcal/mol. For GGAGGCACGTGAGGTG, the “relative binding free energy” value was 0.21 kcal/mol. ATGTCCACGTGAATGG was tested, and the “relative binding free energy” value was 0.26 kcal/mol. GTGGGCACGTGTTTAC was tested, and the “relative binding free energy” value was -0.02 kcal/mol. For GGTGGCACGTGTGAGG, the “relative binding free energy” value was 0.05 kcal/mol. CATTTCACGTGTAATT was tested, and the “relative binding free energy” value was 0.3 kcal/mol. For TTGGCCACGTGTTTAA, the “relative binding free energy” value was -0.07 kcal/mol. In the case of GACGACACGTGTGGAG, the “relative binding free energy” value is reported as 0.44 kcal/mol. For TTTAACACGTGAGCTG, the “relative binding free energy” value was 0.21 kcal/mol. For TTTGTCACGTGCTTAT, the “relative binding free energy” value was -0.05 kcal/mol. In the case of AGTTTCACGTGTGCCT, the “relative binding free energy” value is reported as 0.38 kcal/mol. For ATATACACGTGTAGTA, the “relative binding free energy” value was 0.08 kcal/mol. For GGCTTCACGTGAGATT, the “relative binding free energy” value was 0.6 kcal/mol. CATATCACGTGCGGGG was tested, and the “relative binding free energy” value was 0.07 kcal/mol. In the case of GTAGGCACGTGTTGAG, the “relative binding free energy” value is reported as -0.03 kcal/mol. For AAGGGCACGTGGGTTA, the “relative binding free energy” value was -0.24 kcal/mol. In the case of TTTAACACGTGTCTTG, the “relative binding free energy” value is reported as -0.03 kcal/mol. With TTAGTCACGTGGGTCG the “relative binding free energy” value was -0.08 kcal/mol. For TAAAGCACGTGGCAGT, the “relative binding free energy” value was -0.15 kcal/mol. With TTGTCCACGTGCGAGG the “relative binding free energy” value was 0.06 kcal/mol. GTAGACACGTGTGGCA was tested, and the “relative binding free energy” value was 0.03 kcal/mol. GGTTTCACGTGGGGCA was tested, and the “relative binding free energy” value was 0.16 kcal/mol. For CGAAGCACGTGGGTGC, the “relative binding free energy” value was -0.14 kcal/mol. In the case of AAATTCACGTGTATTA, the “relative binding free energy” value is reported as 0.27 kcal/mol. With AGTCGCACGTGAATGT the “relative binding free energy” value was 0.14 kcal/mol. With CGGGTCACGTGATTTG the “relative binding free energy” value was 0.26 kcal/mol. With TGAGGCACGTGTTAGA the “relative binding free energy” value was -0.05 kcal/mol. For GTGTCCACGTGTGTAT, the “relative binding free energy” value was 0.18 kcal/mol. With TAAGACACGTGTTATG the “relative binding free energy” value was -0.07 kcal/mol. ATGCACACGTGTTGTG was tested, and the “relative binding free energy” value was -0.11 kcal/mol. For TGCGGCACGTGGTAGG, the “relative binding free energy” value was -0.17 kcal/mol. In the case of TAGCGCACGTGTGTGA, the “relative binding free energy” value is reported as 0 kcal/mol. In the case of CATGGCACGTGGGCAT, the “relative binding free energy” value is reported as -0.24 kcal/mol. With GGTAACACGTGTGAAG the “relative binding free energy” value was 0.2 kcal/mol. With GGATTCACGTGTCGGA the “relative binding free energy” value was 0.35 kcal/mol. In the case of TGCGACACGTGTGTTG, the “relative binding free energy” value is reported as -0.08 kcal/mol. For GTTGTCACGTGGCTAA, the “relative binding free energy” value was 0.12 kcal/mol. GGGTACACGTGATTGT was tested, and the “relative binding free energy” value was 0.11 kcal/mol. For TTATGCACGTGGTCAG, the “relative binding free energy” value was -0.28 kcal/mol. With TGTTTCACGTGGAGTA the “relative binding free energy” value was 0.24 kcal/mol. For ATATGCACGTGTTTTA, the “relative binding free energy” value was -0.04 kcal/mol. With CTGTGCACGTGAGGTA the “relative binding free energy” value was 0.1 kcal/mol. In the case of CTTAGCACGTGTCTGG, the “relative binding free energy” value is reported as -0.09 kcal/mol. With TAGTTCACGTGGGACT the “relative binding free energy” value was 0.26 kcal/mol. With TACCGCACGTGGGGTG the “relative binding free energy” value was -0.18 kcal/mol. CTTTTCACGTGTGGCA was tested, and the “relative binding free energy” value was 0.29 kcal/mol. For TTATGCACGTGTGGAA, the “relative binding free energy” value was 0.03 kcal/mol. In the case of CGAGACACGTGGTGGA, the “relative binding free energy” value is reported as 0.03 kcal/mol. CGTTCCACGTGTTGTG was tested, and the “relative binding free energy” value was 0.11 kcal/mol. TGTATCACGTGCTATG was tested, and the “relative binding free energy” value was -0.08 kcal/mol. For AGGGGCACGTGCGGAC, the “relative binding free energy” value was -0.21 kcal/mol. With ATGTACACGTGAAGGT the “relative binding free energy” value was 0.33 kcal/mol. GTGAACACGTGGAGTA was tested, and the “relative binding free energy” value was 0.04 kcal/mol. GGGTTCACGTGTAATC was tested, and the “relative binding free energy” value was 0.62 kcal/mol. In the case of TGTAACACGTGGAATT, the “relative binding free energy” value is reported as 0.13 kcal/mol. In the case of TTTTGCACGTGCTCAG, the “relative binding free energy” value is reported as -0.07 kcal/mol. With GGCATCACGTGTGTTT the “relative binding free energy” value was 0.17 kcal/mol. In the case of TAAACCACGTGGTGGT, the “relative binding free energy” value is reported as -0.19 kcal/mol. For TGGGGCACGTGGATGA, the “relative binding free energy” value was -0.08 kcal/mol. In the case of TTTGTCACGTGAGGGC, the “relative binding free energy” value is reported as 0.24 kcal/mol. For GGAGGCACGTGAAAGG, the “relative binding free energy” value was 0.23 kcal/mol. With TTTCGCACGTGATATA the “relative binding free energy” value was -0.02 kcal/mol. ATGTTCACGTGGAAAG was tested, and the “relative binding free energy” value was 0.3 kcal/mol. In the case of AAGGGCACGTGGAGTC, the “relative binding free energy” value is reported as -0.12 kcal/mol. For AGTCTCACGTGAGTGG, the “relative binding free energy” value was 0.22 kcal/mol. With GCTTTCACGTGTGGTA the “relative binding free energy” value was 0.27 kcal/mol. GGAGTCACGTGGTTCG was tested, and the “relative binding free energy” value was 0.1 kcal/mol. In the case of GTCGTCACGTGATCTT, the “relative binding free energy” value is reported as 0.49 kcal/mol. With ATTAGCACGTGTAGGC the “relative binding free energy” value was 0.06 kcal/mol. For GATAACACGTGGAGGT, the “relative binding free energy” value was 0.03 kcal/mol. For AGAGCCACGTGGGATG, the “relative binding free energy” value was 0.02 kcal/mol. With ATGAGCACGTGTGTGG the “relative binding free energy” value was -0.03 kcal/mol. In the case of AGGTACACGTGTGAAT, the “relative binding free energy” value is reported as 0.29 kcal/mol. With GTAATCACGTGGGTCT the “relative binding free energy” value was 0.11 kcal/mol. For GCGTTCACGTGGGATG, the “relative binding free energy” value was 0.37 kcal/mol. With GACTTCACGTGAGGGT the “relative binding free energy” value was 0.35 kcal/mol. For CTTATCACGTGAAGTG, the “relative binding free energy” value was 0.2 kcal/mol. With AGTAGCACGTGGGGCC the “relative binding free energy” value was -0.25 kcal/mol. GTATGCACGTGTTAGA was tested, and the “relative binding free energy” value was 0.11 kcal/mol. In the case of TTCGGCACGTGGGAAG, the “relative binding free energy” value is reported as -0.13 kcal/mol. In the case of GCTTTCACGTGGTTAT, the “relative binding free energy” value is reported as 0.22 kcal/mol. GAGCGCACGTGCTGGT was tested, and the “relative binding free energy” value was 0.04 kcal/mol. With GCAGGCACGTGGGCTG the “relative binding free energy” value was -0.25 kcal/mol. TAATTCACGTGTGGTT was tested, and the “relative binding free energy” value was 0.38 kcal/mol.
